In all, about 310,000 compounds went through this assay and about 2,200 (0.71%) showed an effect of 50% or more. The effect is printed as a negative number. This is one part of the list.
Biological target: human ether-à-go-go-related gene (hERG) potassium channel (human, UniProt Q12809)
Experiment: primary screen, population patch clamp on CHO cells stably expressing hERG

Chain of human ether-à-go-go-related gene (hERG) potassium channel (Q12809 whole entry, looked up): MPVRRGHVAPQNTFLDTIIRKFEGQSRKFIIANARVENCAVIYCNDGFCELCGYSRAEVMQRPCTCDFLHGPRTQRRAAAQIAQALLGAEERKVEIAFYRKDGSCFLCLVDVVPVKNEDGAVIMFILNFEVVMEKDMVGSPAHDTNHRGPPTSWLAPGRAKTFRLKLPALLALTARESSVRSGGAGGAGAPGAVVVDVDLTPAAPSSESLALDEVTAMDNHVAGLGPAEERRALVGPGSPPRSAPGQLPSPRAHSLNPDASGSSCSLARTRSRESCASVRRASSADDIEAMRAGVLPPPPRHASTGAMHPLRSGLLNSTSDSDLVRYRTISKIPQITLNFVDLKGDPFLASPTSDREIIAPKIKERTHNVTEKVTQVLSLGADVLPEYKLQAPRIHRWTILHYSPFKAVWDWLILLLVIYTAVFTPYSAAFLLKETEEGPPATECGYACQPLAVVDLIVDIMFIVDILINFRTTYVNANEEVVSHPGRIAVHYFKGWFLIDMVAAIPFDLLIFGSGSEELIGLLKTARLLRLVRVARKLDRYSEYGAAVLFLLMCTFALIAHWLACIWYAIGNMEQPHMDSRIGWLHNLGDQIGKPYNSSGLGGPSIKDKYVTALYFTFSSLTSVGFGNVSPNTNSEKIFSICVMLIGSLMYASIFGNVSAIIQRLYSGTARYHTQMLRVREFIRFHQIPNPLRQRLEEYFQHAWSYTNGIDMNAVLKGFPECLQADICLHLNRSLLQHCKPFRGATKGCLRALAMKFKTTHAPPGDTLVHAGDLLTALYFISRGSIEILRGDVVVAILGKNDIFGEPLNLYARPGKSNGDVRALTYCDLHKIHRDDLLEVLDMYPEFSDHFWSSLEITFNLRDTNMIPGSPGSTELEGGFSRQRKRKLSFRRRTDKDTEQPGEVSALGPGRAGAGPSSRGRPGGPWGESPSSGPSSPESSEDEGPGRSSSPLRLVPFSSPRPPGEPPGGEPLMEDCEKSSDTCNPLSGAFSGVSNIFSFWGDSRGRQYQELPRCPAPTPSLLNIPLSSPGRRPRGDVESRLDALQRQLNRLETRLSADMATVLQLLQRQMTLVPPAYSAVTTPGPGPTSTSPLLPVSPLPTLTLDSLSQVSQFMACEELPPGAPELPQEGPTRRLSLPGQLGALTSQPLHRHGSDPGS

Row | SMILES | hERG current change (%, negative = inhibition) at 1uM [%]
1 | COc1cccc2cc(C(C)OC(=O)Nc3ccc(C)cc3)oc12 (centres unmarked) | 9.7
2 | COc1ccc(/C=N/NC(=O)c2cccnc2)cc1 | 7.78
3 | COc1cccc(NC(=O)CN2CCSc3ccccc32)c1 | 3.15
4 | CCOC(=O)c1ccc(Nc2ncnc3nc[nH]c23)cc1 | 5.55
5 | Cc1nn(-c2ccccc2)c(Cl)c1/C=C1\C(=O)N(C)C(=S)N1C | 12.2
6 | CCOC(=O)c1nnn2c1nc(Nc1cccc(C(F)(F)F)c1)c1ccccc12 | 13.8
7 | Cc1cc(C(=O)OCC(=O)Nc2ccc(F)cc2F)c(C)o1 | 4.61
8 | O=C(C1=C(O)C(=O)N(c2ncccn2)C1c1cccc(Cl)c1)c1ccco1 (centres unmarked) | 17.6
9 | C/C(=N/NC(=O)c1ccc(Br)o1)c1cccs1 | 11.3
10 | O=C(NCc1ccc2c(c1)OCO2)c1cccc(Cl)c1 | 6.31
11 | CN(C)c1ccc(C2Nc3ccccc3C(=O)N2CCN2CCNC2=O)cc1 (centres unmarked) | 8.38
12 | Cc1ccccc1N=C1NC(=O)/C(=C/c2cccnc2)S1 | 15.8
13 | COc1ccccc1Oc1nc([N+](=O)[O-])nn1CC(N)=O | 19.9
14 | CCc1nnc(NC(=O)CSc2nc(C)cc(C)c2C#N)s1 | 8.79
15 | COC(=O)C1=C(C)NC(C)=C(C(=O)OC)C1C1CC=CCC1 (centres unmarked) | 15.7
16 | CCOC(=O)N1CCN(C(=O)C(CC)n2nc(C)c3sc4ccccc4c3c2=O)CC1 (centres unmarked) | 11.6
17 | Cc1ccc(S(=O)(=O)N2CCN(CC(=O)N/N=C\c3ccc(O)c(O)c3)CC2)cc1 | 6.18
18 | O=C(NCCNC(=O)c1ccccc1Br)c1ccccc1Br | 11.3
19 | CC(C)C(c1nnnn1C1CCCC1)N1CCCc2ccccc21 (centres unmarked) | 6.29
20 | Cc1cc(Sc2ccc([N+](=O)[O-])cn2)ccc1Br | 4.44
21 | O=C(Nc1ccc([N+](=O)[O-])cc1)N1CCc2ccccc2C1 | 3.69
22 | O=C(Cc1cccs1)N1CCN(c2ccc(F)cc2)CC1 | 2.38
23 | CCCNC(=O)C(=O)NCCC1=CCCCC1 | 9.24

Row | SMILES | hERG current change (%, negative = inhibition) at 1uM [%]
24 | Cc1ccc(-n2nc3c(c2NC(=O)c2c(-c4ccccc4Cl)noc2C)CS(=O)(=O)C3)c(C)c1 | 10.6
25 | COc1ccc(C(=O)Nc2ccc(NC(=O)c3cccc(F)c3)cn2)cc1 | 14.8
26 | CCc1ccc2nc(SCC(=O)NCC3CCCO3)c(C#N)cc2c1 (centres unmarked) | 10.8
27 | Cc1ccc(S(=O)(=O)N2CCN(C(=O)CC3CCCC3)CC2)cc1 | 5.57
28 | CCC(=O)c1ccc(OCc2ccccc2)c(OC)c1 | 16.7
29 | CCCCN(C(C)=O)C1CC(=O)N(c2ccc(OCCC)cc2)C1=O (centres unmarked) | 10.5
30 | CC(C)(C)c1ccc(C(=O)N/C(=C\c2ccco2)C(=O)Nc2ccccc2C(=O)O)cc1 | 16.5
31 | Clc1cccc(Oc2ncc(CN3CCOCC3)s2)c1 | 2.05
32 | CCOc1cc(C)c(C(C)C)cc1S(=O)(=O)N1CCOCC1 | 8.94
33 | CCCNC(=O)c1ccc(N2CCC3(CC2)CC(c2cccc(Br)c2)=NO3)c(NC(=O)c2cccc(C)c2)c1 | 13.9
34 | COc1ccc2[nH]c(C)c(CCNC(=S)Nc3ccccc3C)c2c1 | 11.7
35 | C=CCn1c(-c2sc3nc(C)cc(C)c3c2N)n[nH]c1=S | 9.47
36 | O=C(NCC(c1cccs1)N1CCOCC1)c1cc(-c2ccccn2)nc2ccccc12 (centres unmarked) | -2.9
37 | O=C(O)CC1SC(=O)N(CC(=O)c2ccccc2)C1=O (centres unmarked) | 8.06
38 | CCc1ccc(C(=O)COC(=O)C(Cc2ccccc2)NC(=O)c2ccc(Cl)cc2)cc1 (centres unmarked) | 9.37
39 | CC(=O)c1cccc(NC(=O)C(C)OC(=O)CNC(=O)c2ccc(C)s2)c1 (centres unmarked) | 13.3
40 | CC(C)C[C@H](NC(=O)Nc1ccc(Oc2ccccc2)cc1)C(=O)O | 11.2
41 | Cc1ccc(NC(=O)Cn2cnc3cc([N+](=O)[O-])ccc3c2=O)c(Cl)c1 | 10.9
42 | Cc1ccc(C(=O)c2c(C)oc3c2C(=O)C(=O)c2ccccc2-3)cc1 | 16.9
43 | Br.N=C1c2ccccc2CN1c1ccc(N2CCOCC2)c(S(=O)(=O)Nc2ccc(Cl)cc2)c1 | -89.2
44 | CC(=O)c1cccc(NC(=O)Oc2ccccc2)c1 | 6
45 | COc1ccc(C(=O)Oc2ccc(/C=N/NC(=O)c3cccnc3)cc2OC)cc1 | 3.46
46 | CCn1c(=O)cc(OCC(=O)NCc2ccco2)c2ccccc21 | 7.08

Row | SMILES | hERG current change (%, negative = inhibition) at 1uM [%]
47 | C/C(=N\NC(=O)CNC(=O)C1COc2ccccc2O1)c1ccc(Cl)cc1 (centres unmarked) | 3.71
48 | COC(=O)c1ccc(S(=O)(=O)NCCc2ccccc2OC)n1C | -0.459
49 | CN(c1ccccc1)S(=O)(=O)c1ccc(Cl)c(C(=O)Nc2ccc(-c3nc4ccccc4[nH]3)cc2)c1 | 16.2
50 | O=C(c1cccc(C(F)(F)F)c1)N1CCN(C2CCCCC2)CC1 | -6.65
51 | CCn1c(C)nc2cc(C(=O)NNC(=O)Nc3ccc(Cl)c(Cl)c3)ccc21 | 16
52 | Cc1ccc(-n2c(C)nn(CCOc3ccccc3)c2=O)cc1 | 6.78
53 | O=C(NCC12CC3CC(CC(C3)C1)C2)c1nn2c(c1Cl)NC(c1ccco1)CC2C(F)(F)F (centres unmarked) | 12.4
54 | C=CCn1c(SCc2nc3ccccc3c(=O)[nH]2)nc2sc3c(c2c1=O)CCCC3 | 11.6
55 | CCn1cc(CNC(=O)C2C3CCC(C3)C2C(=O)O)cn1 (centres unmarked) | 14
56 | O=C(NCc1ccco1)/C(=C\C=C\c1ccccc1)NC(=O)c1ccco1 | -2.52
57 | CN(C)c1cccc(C(=O)OCC(=O)NCC2CCCO2)c1 (centres unmarked) | 10.5
58 | Cn1c(CNc2ccccc2O)nc2ccccc21 | 5.44
59 | Cc1ccc(Cn2c(SCC(=O)N(C)C3CCS(=O)(=O)C3)nc3ccccc3c2=O)cc1 (centres unmarked) | -41.9
60 | O=C(Nc1ccccn1)c1ccc(Cl)c(S(=O)(=O)N2CCc3ccccc32)c1 | 8.29
61 | Cc1ccc(CNC(=O)C(=O)NCC2OCCN2S(=O)(=O)c2ccc(C)cc2)cc1 (centres unmarked) | 10.9
62 | CC(=O)c1cccc(NC(=O)CCCSc2ccccc2)c1 | 7.62
63 | O=C(CCCN1C(=O)/C(=C/c2cccs2)SC1=S)Nc1ccc(O)cc1 | 14.8
64 | O=C(Nc1cccc(-c2cnc3ccccc3n2)c1)c1cccc(NC(=O)c2ccco2)c1 | 11.2
65 | CCn1c(SCC(=O)Nc2ncc(C(F)(F)F)cc2Cl)nnc1-c1ccccc1 | 4.37
66 | CCn1c(SCC(=O)Nc2ccc(F)cc2)nnc1C1CC1 | 14.6
67 | CCOC(=O)c1ccc(N2C(=O)CC(SCC(N)C(=O)OCC)C2=O)cc1 (centres unmarked) | 1.59
68 | Cc1ccc(OCc2nnc(SCC(=O)NCc3ccco3)n2C)cc1 | -4.78
69 | Nc1cccn2c(-c3ccc(Cl)cc3)cnc12 | 12.3

Row | SMILES | hERG current change (%, negative = inhibition) at 1uM [%]
70 | CC(=O)N1CCN(c2ccc([N+](=O)[O-])c(NCC3CCCO3)c2)CC1 (centres unmarked) | -1.4
71 | Cc1ccc(-c2nnn(CC(=O)N(CC(=O)NC3CCCCC3)c3ccc(F)c(Cl)c3)n2)o1 | 14.2
72 | CCOc1ccc(C(=O)N2CCN(c3ccccc3)CC2)cc1 | -0.559
73 | C=CCn1c(COc2ccccc2F)nnc1SCC(=O)NC(=O)NCc1ccco1 | 2.24
74 | CC1(C)CC2CC(C)(CN2C(=O)Cc2ccccc2)C1 (centres unmarked) | 5.8
75 | COc1ccc(C(=O)CSc2nnc(-c3ccccc3)o2)cc1 | 9.48
76 | COc1ccc(-c2cc(C(F)(F)F)c(C#N)c(SCC(=O)Nc3nc(C)co3)n2)cc1 | 14
77 | COc1ccc(OC)c(NC(=O)CCN2CCCCC2)c1 | 5.68
78 | O=[N+]([O-])c1ccccc1S(=O)(=O)N1CCN(C2CCCC2)CC1 | 9.1
79 | Oc1ccc(C2Nc3cccc4cccc(c34)N2)cc1 | 12.4
80 | C=C(C)CN1C(=O)C2(OCCO2)c2ccccc21 | 14.9
81 | COc1cc(NC2CCCCC2O)c2nc(-c3ccc(Cl)cc3)ccc2c1 (centres unmarked) | 3.63
82 | Cc1c(CN(C)C(=O)c2nn(C)cc2[N+](=O)[O-])cnn1C | 10.8
83 | CC1(C)CC(=O)C(C=NCCN2CCN(C(=S)Nc3cccc(Cl)c3)CC2)=C(O)C1 | -27.6
84 | CC(C)(CO)NCC#Cc1ccccc1.Cl | 7.46
85 | COc1cccc(-c2nc(CCl)cs2)c1.Cl | 36.5
86 | CCOC(=O)C1CCN(S(=O)(=O)Cc2ccccc2)CC1 | 8.66
87 | CCCC(C)NC(=O)COC(=O)c1ccc2c(c1)C(=O)N(Cc1ccco1)C2=O (centres unmarked) | 14.2
88 | Cc1nc2c(-c3ccc(Cl)cc3)cnn2c(N)c1-c1ccc(F)cc1 | 16.1
89 | Cc1nnc2sc(-c3ccc(NC(=O)c4ccc(-c5ccc(Cl)cc5Cl)o4)cc3)nn12 | 13.1
